Among all 360,000 compounds or so, about 6,000 (1.7%) were called active. Inconclusive means that the source gave no clear call. Such entries were picked first, then a sample of the others. The call rests on the fitted dose curve; in most records, active means well fitted cell-killing curve with a large enough effect; inconclusive means small, poorly fitted or top-dose-only effect, or effect the other way; inactive means flat fitted curve, though single readings scatter. Potencies of inconclusive entries are left out as doubtful fits.
Experiment: qHTS for induction of synthetic lethality in tumor cells producing 2HG: qHTS for the HT-1080-NT fibrosarcoma cell line;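 further: NT is the 2HG producing partner of a matched IDH1 knockdown line; nearly all actives have a fitted effect of over 55% in size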;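 on activity, negative = less viability: 0% = DMSO-treated cells and -100% = media-only wells without cells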
Conditions: HT-1080-NT fibrosarcoma viability, CellTiter-Glo ATP luminescence, 48 h; activity, negative = less viability: at 46.1 µM (top of the series) unless noted
Procedure, shortened: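 HT-1080-NT fibrosarcoma cells (2HG-overproducing), 750 cells/well in RPMI with 5% FBS, dosed after 2 h and incubated 48 h at 37C. CellTiter-Glo luminescence normalized to DMSO and no-cell wells; concentration-response curves fitted and classed.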
Potency means the concentration at half of the fitted maximal effect; tags describe the fitted curve by direction and shape.

Structure (SMILES)	Potency	activity, negative = less viability
COC(=O)c1ccc(/C=C(\C#N)C(=O)NC(C)c2ccccc2)cc1 (centres undefined)	inconclusive [cytotoxic, single point]	–
O=C(NCc1ccco1)c1ccc2[nH]c(=O)c(=O)[nH]c2c1	inactive	–
CCOC(=O)c1c(NC(=O)OC)sc(C(=O)N(CC)CC)c1C	inactive	–
CSc1ccc(CN2CCC2(C)C(=O)NC2CCc3ccccc32)cc1 (centres undefined)	inconclusive [cytotoxic, partial curve]	–
COc1cc(C(=O)N2CCN(c3ccccc3)CC2)c2ccccc2n1	inconclusive [cytotoxic, full curve, poor fit]	–
CCCc1cc(=O)oc2cc(OCc3cccc(OC)c3)c(Cl)cc12	inconclusive [rising, full curve, poor fit]	–
CCOc1ccc(NC(=O)C2CCCN(S(=O)(=O)c3cccc4nsnc34)C2)cc1 (centres undefined)	inactive	–
COc1ccccc1/C=N/NC(=O)c1cc2c(OC)c(OC)ccc2[nH]1	active: 7.31 µM	–
Cc1cccc2c(=O)c(C(=O)NCc3cccs3)c[nH]c12	inconclusive [cytotoxic, single point]	–
COC(=O)c1cc2c(ccn2-c2ccc(F)cc2)n1Cc1cccc(OC)c1	inactive	–
CC(=O)Oc1ccccc1-c1nc(C)nc(N(C)C(C)=O)n1	inconclusive [cytotoxic, single point]	–
Clc1ccc2c(N/N=C/c3cccnc3)ccnc2c1	inconclusive [cytotoxic, single point]	–
CCOc1ccc(NC(=O)NCCCSC2CCCCC2)cc1	inactive	–
CCC(=O)Nc1ccc(/C(C)=N\NS(=O)(=O)c2ccc(C)cc2)cc1	inactive	–
O=C(CCN1CCN(c2ccccc2)CC1)NNC(=O)c1cccc2ccccc12	inactive	–
O=C1NC(=S)SC1=Cc1ccccc1Br	inconclusive [cytotoxic, single point]	–
COCCNC(=O)CC(NS(=O)(=O)c1ccc(NC(C)=O)cc1)C(C)C (centres undefined)	inactive	–
COc1ccc(-c2ccc3nnc(SCC(=O)NCC4CCCO4)n3n2)cc1 (centres undefined)	inactive	–
Cn1cccc1C(=O)C(=O)Nc1ccccc1	inconclusive [cytotoxic, partial curve]	–
CC(Nc1nc(-c2cccc(Br)c2)cs1)c1nc2cc(Cl)c(N3CCCCC3)cc2n1CCOCCO (centres undefined)	inconclusive [cytotoxic, single point]	–
CCn1c(=O)c(C(=O)Nc2ncccc2C)c(O)c2ccccc21	inactive	–
CN(CC(=O)Nc1cccc(F)c1)C(=O)c1ccc(N2CCCCCC2)c([N+](=O)[O-])c1	inconclusive [cytotoxic, partial curve]	–
Nc1c(C(=O)NCCN2CCOCC2)c2nc3ccccc3nc2n1CCc1ccccc1	inconclusive [cytotoxic, single point]	–

Structure (SMILES)	Potency	activity, negative = less viability
Oc1ccc(-c2[nH]ncc2-c2cccc3cccnc23)c(O)c1	inconclusive [cytotoxic, single point]	–
Cn1c(N)c(C(=O)COC(=O)c2ccccc2C(=O)c2ccc(Cl)cc2)c(=O)n(C)c1=O	inconclusive [cytotoxic, partial curve]	–
O=c1c2ccccc2sn1-c1ccccc1	inconclusive [cytotoxic, single point]	–
Cc1ccc(NC(=O)c2cc(C(=O)Nc3ccc(C)cc3)n(C)n2)cc1	inconclusive [cytotoxic, single point]	–
C[C@H]1NC(=O)[C@@]2(C)[C@@H](c3ccccc3)[C@H]3COc4ccccc4[C@@H]3N2C1=O	inactive	–
O=C(CSc1ccc(-c2ccc(F)cc2)nn1)N1CCCCC1	inconclusive [cytotoxic, single point]	–
COc1ccc(OC)c(N(CC(=O)Nc2cccnc2)S(=O)(=O)c2ccccc2)c1	active: 6.51 µM	–
O=C1CCC(C(=O)Nc2cccc(S(=O)(=O)Nc3ccccc3F)c2)=NN1	inconclusive [cytotoxic, single point]	–
COc1ccc(C(C)=NNc2ccc([N+](=O)[O-])cc2S(=O)(=O)Nc2ccccc2C(=O)O)c(OC)c1	inconclusive [cytotoxic, partial curve]	–
CCN(CC)C(=O)C1=C(C)N(Cc2ccc(C(C)(C)C)cc2)C(=O)C(CC(=O)NCCc2ccccn2)C1 (centres undefined)	inactive	–
Cc1ccc(CSc2nc3ccccc3cc2C=O)cc1	active: 5.8 µM	–
COc1ccc(N2CCN(S(=O)(=O)c3ccc4c(c3)CCCC4)CC2)c([N+](=O)[O-])c1	inconclusive [cytotoxic, single point]	–
COc1ccc(C(=O)/C(=C/O)N=Nc2ccc(F)cc2)cc1	inconclusive [cytotoxic, partial curve]	–
CC(=O)c1ccc(NC(=O)c2cc(CC(C)C)on2)cc1	inactive	–
O=C1c2c(-c3ccc(Br)cc3)noc2CCN1Cc1cn(-c2ccccc2)nn1	inconclusive [cytotoxic, single point]	–
N#Cc1c(-c2ccccc2)c(-c2ccccc2)nn(CC(=O)NNC(=O)Nc2ccccc2)c1=O	active: 2.31 µM	–
CCc1nnc(N/N=C/c2cc(Br)c(O)cc2O)n1N	inconclusive [cytotoxic, single point]	–
CC(=O)Nc1cccc(OCCCNC(=O)c2ccc(C(C)(C)C)cc2)c1	inconclusive [cytotoxic, single point]	–
Cc1ccccc1NC(=O)c1cccc(N2C(=O)C3C4CCC(C4)C3C2=O)c1 (centres undefined)	–	inconclusive: -22.1% [cytotoxic]
Clc1ccc(-n2ncc3c(NCc4ccc5c(c4)OCO5)ncnc32)cc1	inconclusive [cytotoxic, single point]	–
CCc1nc2ccc(C(=O)NCc3ccccc3OC)cn2c1N(CCC(C)C)CCN(C)C	inconclusive [cytotoxic, single point]	–
CCOC(=O)c1c(-c2ccco2)csc1NC(=O)CSc1nnc(N)s1	inconclusive [cytotoxic, single point]	–
COC(=O)[C@]12CCCCC=C1N(Cc1cccc3ccccc13)C(=O)[C@H](CC(=O)NCC13CC4CC(CC(C4)C1)C3)C2	inconclusive [cytotoxic, single point]	–

Structure (SMILES)	Potency	activity, negative = less viability
CC(=O)c1ccc(-n2c(C)ccc2-c2ccccc2)cc1	inconclusive [cytotoxic, single point]	–
CC1Cc2ccccc2N1C(=O)CO/N=C/c1ccc(OC(F)F)cc1 (centres undefined)	inactive	–
CC(=O)N1CCN(c2ccc(Oc3ccc([N+](=O)[O-])c(C(F)(F)F)c3)cc2)CC1	inconclusive [cytotoxic, partial curve]	–
COc1cccc(N2CCN(C(=O)c3cc(C)oc3C)CC2)c1	inconclusive [cytotoxic, single point]	–
CCCCN1C(=O)C(=O)N(CC(=O)Nc2ccccc2C(=O)OCC)C1=O	inconclusive [cytotoxic, single point]	–
O=C(c1ccc(N2CCCC2=O)cc1)N1CCCCCC1	inactive	–
CN(Cc1cccnc1)C(=O)CCCc1c[nH]c2ccccc12	inactive	–
C/C(=N\NC(=O)c1ccc(OC2OCCOC2Oc2ccc(C(=O)N/N=C(\C)c3ccncc3)cc2)cc1)c1ccncc1 (centres undefined)	inconclusive [cytotoxic, single point]	–
Cc1ccc(-c2noc(CSc3nnc(CCc4ccccc4)n3-c3ccccc3)n2)cc1	inconclusive [cytotoxic, single point]	–
COc1ccc(-c2nc(C(=O)NCC3CCCO3)cc3c2[nH]c2ccccc23)cc1 (centres undefined)	inactive	–
CN(C)c1ccc(N/C=C/C(=O)c2ccccc2)cc1	active: 8.91 µM	–
CCOc1ccc(CCN2C(=O)C(=O)N([C@@H](Cc3ccccc3)CN3CCC[C@H]3CN3C(=O)C(=O)NC[C@@H]3Cc3ccc(O)cc3)C[C@@H]2CC(C)C)cc1	inconclusive [cytotoxic, single point]	–
CCOC(=O)C1=CCN(S(=O)(=O)c2ccccc2Br)C1c1cccc(Cl)c1 (centres undefined)	inconclusive [cytotoxic, single point]	–
C/C(=N\NC(=O)C1CCCN(S(=O)(=O)c2ccccc2)C1)c1ccccn1 (centres undefined)	inconclusive [cytotoxic, partial curve]	–
COC(=O)c1ccccc1NC(=O)c1ccc(Cn2cc(Cl)cn2)o1	inconclusive [cytotoxic, partial curve]	–
CCNC(=S)N(CCc1c(C)[nH]c2ccc(C)cc12)Cc1cccs1	inconclusive [cytotoxic, single point]	–
CCc1ccc(-c2nc(C(N)=O)c3[nH]c(=O)n(-c4ccccc4OC)c3n2)cc1	inconclusive [cytotoxic, full curve]	–
C=CCn1c(CCCNC(=O)C(C)(C)C)nc2ccccc21	inactive	–
CC1=CC(C)(C)Nc2ccc(OC(=O)c3ccco3)cc21	active: 2.82 µM	–
Cc1cc(C)c(S(=O)(=O)/N=C2/C=C(Sc3ncn[nH]3)C(=O)c3ccccc32)cc1C	active: 2.91 µM	–
COC(=O)CNC(c1ccccc1)c1cc(Cl)ccc1NC(=O)c1cccc(Cl)c1 (centres undefined)	inactive	–
O=C(CCS(=O)(=O)Cc1ccccc1)Nc1nc2c(s1)CCCC2	inconclusive [cytotoxic, single point]	–
C/C(=N\NS(=O)(=O)c1ccc(C)cc1)c1ccc(C)s1	inactive	–

From PubChem BioAssay AID686970 (National Center for Advancing Translational Sciences (NCATS), 2013)
